Measured values from publication PMC4336329 (PLoS ONE, 2015).
In all, about 310,000 compounds went through this assay and about 2,200 (0.71%) showed an effect of 50% or more. Effects have a minus sign here. This is one part of the list.

The compounds below were run against human ether-à-go-go-related gene (hERG) potassium channel (human, UniProt Q12809) (assay: primary screen, population patch clamp on CHO cells stably expressing hERG).
human ether-à-go-go-related gene (hERG) potassium channel, sequence (Q12809 whole entry, looked up): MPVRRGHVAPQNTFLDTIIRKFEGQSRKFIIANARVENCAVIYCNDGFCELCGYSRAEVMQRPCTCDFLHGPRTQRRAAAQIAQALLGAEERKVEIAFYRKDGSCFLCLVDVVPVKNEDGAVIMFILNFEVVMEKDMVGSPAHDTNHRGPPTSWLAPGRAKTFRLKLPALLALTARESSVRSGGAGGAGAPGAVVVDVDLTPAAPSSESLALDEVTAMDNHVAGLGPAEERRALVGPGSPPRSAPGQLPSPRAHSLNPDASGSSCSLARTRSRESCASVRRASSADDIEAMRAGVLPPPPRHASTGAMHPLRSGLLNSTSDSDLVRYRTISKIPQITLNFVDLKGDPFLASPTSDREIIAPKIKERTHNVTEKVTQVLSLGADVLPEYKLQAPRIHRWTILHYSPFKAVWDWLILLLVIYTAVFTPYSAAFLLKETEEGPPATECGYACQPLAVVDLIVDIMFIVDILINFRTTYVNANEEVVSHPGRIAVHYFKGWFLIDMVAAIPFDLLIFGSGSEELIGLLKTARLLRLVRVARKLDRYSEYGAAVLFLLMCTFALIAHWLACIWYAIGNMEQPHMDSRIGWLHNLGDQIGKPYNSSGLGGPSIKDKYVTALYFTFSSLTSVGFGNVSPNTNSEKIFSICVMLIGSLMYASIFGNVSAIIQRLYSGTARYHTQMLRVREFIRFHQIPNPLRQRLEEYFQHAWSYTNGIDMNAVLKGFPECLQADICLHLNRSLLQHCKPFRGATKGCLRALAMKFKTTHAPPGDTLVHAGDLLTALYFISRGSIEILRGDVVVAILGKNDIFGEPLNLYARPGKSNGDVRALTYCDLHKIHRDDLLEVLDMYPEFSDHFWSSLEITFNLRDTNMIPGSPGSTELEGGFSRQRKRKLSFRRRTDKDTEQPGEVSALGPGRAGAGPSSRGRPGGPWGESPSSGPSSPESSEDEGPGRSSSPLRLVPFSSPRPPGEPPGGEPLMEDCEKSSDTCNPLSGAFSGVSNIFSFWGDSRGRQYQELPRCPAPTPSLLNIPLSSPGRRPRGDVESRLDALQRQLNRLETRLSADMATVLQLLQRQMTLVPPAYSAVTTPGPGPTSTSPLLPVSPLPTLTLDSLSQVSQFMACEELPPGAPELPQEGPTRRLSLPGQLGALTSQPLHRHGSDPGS

SMILES	hERG current change (%, negative = inhibition) at 1uM
Cc1ccccc1C(=O)c1cccn1CC(=O)NCc1ccccc1	8.28%
O=C(c1cccs1)c1no[n+]([O-])c1C(=O)c1cccs1	-5.95%
Cc1ccccc1NC(=O)CSc1nc(N)c(C#N)cc1C#N	5.28%
CCOC(=O)/C(C#N)=C/c1c(N2CCN(CC)CC2)nc2c(C)cccn2c1=O	2.17%
O=C(O)CSc1ccc(S(=O)(=O)N2CCCC2)cn1	3%
Nc1c(C(=O)CSc2nnc(N3CCOCC3)n2-c2cccc(F)c2)c(=O)[nH]c(=O)n1C1CC1	24.9%
CCOC(=O)c1c(COc2ccccc2)oc2ccc(O)cc12	0.989%
COc1ccc(-c2nnc(NC(=O)c3c(OC)cccc3OC)s2)cc1	13.7%
CNC(=O)C(=O)NCC(c1cccs1)S(=O)(=O)c1ccc(C)cc1 (stereo not shown)	17.1%
CC(C)c1ccc(C2C3=C(COC3=O)Nc3cc4c(cc32)OCO4)cc1 (stereo not shown)	-2.91%
C=CCOC(=O)/C(=C\c1cccc2ccccc12)NC(=O)c1ccccc1	6.44%
Clc1ccc(-c2cc3ccccc3[nH]2)cc1	-6.82%
CCOc1cc(N2CCOCC2)c(OCC)cc1NC(=O)Cc1ccccc1OC	3.05%
CCOC(=O)c1cnn2c(N)c(C#N)cnc12	14.6%
COc1ccc(NS(=O)(=O)c2cc(NC(=O)c3ccncc3)ccc2N2CCOCC2)cc1	10.6%
CS(=O)(=O)N1N=C(c2ccccc2)CC1c1ccc2nccnc2c1 (stereo not shown)	6.57%
Cc1cc(C(=O)COc2ccccc2C(N)=O)c(C)n1CC1CCCO1 (stereo not shown)	7.72%
Cc1ccc(-c2nnc(N3CC(C)OC(C)C3)c3ccccc23)cc1 (stereo not shown)	6.65%
COc1ccc(C)cc1NC(=O)Nc1ccccc1	10.4%
CCO[C@H]1OC(C(=O)NCc2nc3ccccc3[nH]2)=C[C@@H](c2ccc(Br)cc2)[C@@H]1CCCO	13.9%
CN(C[C@H](CC1CCCCC1)N(C[C@H](Cc1ccccc1)N(CCc1ccccc1)N=O)N=O)N=O.[Na+]	10.9%
O=C(Nc1cccc(C2OCCCO2)c1)c1cccs1	15.7%
Cc1ccc(NC(=O)C(=S)NCc2ccco2)cc1	6.81%
O=C(CN(Cc1ccccc1)C(=O)c1ccc2c(c1)OCCO2)NCc1ccc2c(c1)OCO2	-11.2%
CCn1ccc2c(OCC(=O)NCCc3ccc(OC)c(OC)c3)cccc2c1=O	13.9%
C[C@H](NC(=O)c1ccc(C(C)(C)C)cc1)C(=O)N1CCC2(CC1)NCCc1[nH]cnc12	17.7%
Cc1nc(N2CCCCC2)c2c(C)c(C(=O)Nc3ccc4c(c3)OCCO4)sc2n1	15.8%
O=C(CN(C(=O)c1csnn1)c1cccc(F)c1)NCc1ccc2c(c1)OCO2	13.9%

SMILES	hERG current change (%, negative = inhibition) at 1uM
O=S(=O)(c1ccc(-n2cnnn2)cc1)N1CCC(N2CCCCC2)CC1	-9.44%
CC(NC1CCCCC1)C(O)C12CC3CC(CC(C3)C1)C2.Cl (stereo not shown)	-13.6%
O=C1c2ccccc2NC(c2ccc(F)cc2)N1Cc1ccccc1 (stereo not shown)	9.43%
CCOC(=O)C1=C(CC)Nc2ccccc2N=C1NC(=O)c1cccc(S(=O)(=O)N2CCCC2)c1	12.9%
O=C(NC1CCCCC1)c1ccc(-c2ccccc2[N+](=O)[O-])o1	6.82%
Cc1nnc(SCC(=O)Nc2nccs2)n1N	-11.7%
Cc1cccc(N2C(=O)NC(=O)/C(=C\c3cc(C)n(-c4sc5c(c4C#N)CCCC5)c3C)C2=O)c1C	9.38%
CCOC(=O)/C(C#N)=C\c1cn(C)c2ccccc12	17.1%
Cc1cc(/C=C2\C(=N)N3N=C(S(C)(=O)=O)SC3=NC2=O)c(C)n1Cc1ccccc1	7.52%
Nc1cc[n+](CC(=O)c2ccccc2)cc1.[Br-]	19.1%
COc1ccccc1N(C)S(=O)(=O)c1ccc(C(=O)OCC(=O)Nc2cc(C)on2)cc1	10.7%
CN(C)CCCN(C(=O)c1ccc2c(c1)OCCO2)c1nc2cc3c(cc2s1)OCO3.Cl	-11.9%
COCCNC(=O)c1ccccc1NC(=O)CSc1ccc(C)cc1	7.67%
O=C(c1cnn2c(C(F)(F)F)cc(-c3ccccc3)nc12)N1CCCCC1c1cccnc1 (stereo not shown)	8.17%
COc1ccccc1NC(=O)c1cc(C(=O)Nc2ccccc2OC)n(C)n1	13.9%
CC(C)(C)C(=O)CSc1nccc(=O)[nH]1	7.65%
CCN(CC)C(=O)C1CCCN(C(=O)c2cc(COc3ccc4ncccc4c3)on2)C1 (stereo not shown)	7.18%
CCN(CC)C(=O)c1ccc(S(=O)(=O)NCc2cccnc2)cc1	14.3%
COC(=O)c1sccc1-n1cccc1C(=O)C(=O)N1CCOCC1	-87.6%
COC(=O)c1c(NC(=O)CC2SC(N)=NC2=O)sc2c1CCC(C(C)(C)C)C2 (stereo not shown)	9.34%
COc1cccc(OC)c1C(=O)NC(=S)N1CCOCC1	14.8%
COc1ccc(-c2noc(-c3ccccc3-c3ccccc3)n2)cc1OC	11%
CC(C)Oc1ccc(C(=O)NC2CCCCC2)cc1	12.1%
CCOc1ccc(CN(C)C(C)C(=O)NCCc2ccc(F)cc2)cc1 (stereo not shown)	-57.1%
COc1cc(OC)c(C2CC(=O)N3CN(C)CSC3=C2C#N)cc1OC (stereo not shown)	15.6%
CC(OC(=O)Cc1coc2cc3c(cc12)CCC3)C(=O)NCc1ccc2c(c1)OCO2 (stereo not shown)	-5.75%
Nc1ncc(Br)cc1S(=O)(=O)NCCc1ccccc1	15.1%
